Numbering of substitutions follows the chain as printed. The list shows a part of the results. Binding of human antibodies (heavy:light variable regions, tested as scFv in one mRNA-display pool) to influenza hemagglutinin, with or without the stem antibody CR9114 bound first. Score = (mean enrichment − median) / interquartile range of that screen; higher = more enriched, 0 = typical non-binder. Active = above the paper's cut-off per screen: stems 28; unblocked H1 Solomon Islands 5, H1 Michigan 3, H3 5, H5 19, H7 2.85, both B 5; blocked 9, 7, H5 10, H7 10, B Phuket 10, B Lee 11.5. Scores are scaled within each screen and are no affinities; replicates correlate at about 0.6 to 0.9, and antibodies rare in the pool are noisier.

In experiment [1] the target is H1 HA stem construct (mini-HA #4900). The experiment in a line: mRNA display binding score; higher = more enriched on the antigen. The note with it: antigen blocked with: nothing. How it is done:
(§1)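 A pool of natively paired antibodies, displayed as scFv on mRNA, was selected once on antigen-coated beads and sequenced before and after; two replicates.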

Experiment [2] addresses H3 HA stem construct (H3ssF). The description is as above. The note with it: antigen blocked with: nothing. How it is done: as §1

B1: 009-10-2G06 (protein)
chain 1: EVQLVESGGGFVRPGGSLRLSCVGSGFNFDDSAMHWVRQGPGKGLEWVAGINWKSNDIAYVESVKGRFTISRDNAKRTLFLQMNSLRPDDTALYFCAKDRAGYFYAMAVWGQGATVTVSS
chain 2: SYELTQPPSMSVAPGQTAKITCGGDHIGIRSVHWYLRRPGRAPVLVLYDLNDRPLGIPERFSGSNSGHTATLTISGVEAGDEGDYYCQVWDGSGDNRGIFGGGTKLTVL
B1: the “mRNA display binding score” value in experiment [1] is inactive: -1.04; in experiment [2], inactive: -0.748.

B2: K77-1F01 (protein)
chain 1: EVQLVESGGGLVQPGGSLRLSCAASGFTFSSYGMNWVRQAPGKGLEWISDISSDRSTIYYADSVKGRFTISRDNAKNSLYLQMNSLRVEDTAVYYCARDFMSYFFDYWGQGTLVTVSS
chain 2: QSALTQPASVSGSPGQSITISCTGTSSDVGAYNYVSWYQQHPGKAPKLLIYDVNNRPSGVSNRFSGSKSGNTASLTISGLQAEDEADYYCNSYTSISTGVFGGGTNVT
Regarding B2, the entries for the “mRNA display binding score” value in experiment [1] and in experiment [2] were inactive: 0.62 and inactive: -0.0221, respectively.

B3: 16.ND.95 (protein)
chain 1: EVQLVESGGGMVQPGRSLRLSCAASGFTFGNYAMHWVRQAPGKGPEWVAVISYDGSQKYYTESVKGRFTISRDSSRNMVFLQMNSLRPDDTALYYCVRDRAASLDYWGQGTLVTVPS
chain 2: DIQMTQSPVSPSGSVGDRVTITRRASQSIARVVNWYQQKPGRAPKLLIFYASSLESGGPSRFSGRGFGTDFTITISGLQPEDFATYYCQQRYSAPYTFGQGTNLEIK
Regarding B3, the entries for the “mRNA display binding score” value in experiment [1] and in experiment [2] were inactive: 1.73 and inactive: 1.08, respectively.

B4: 051-09-4D03 (protein)
chain 1: QVQLVQSGPEVRKPGASVKVSCKASGYTFTNHDINWVRQAPGQGLEWMGWVNPSNNNVGYAQKFRGRVTMTKDSSTSTVHMELYSLTSEDTAVYYCARGLGGGISVFGVLVRGRWFDPWGQGTLVTVSS
chain 2: DIQMTQSPSTLSASVGDRVTITCRASQSISTDLAWYQQKPGRAPKVLIFEASRLQSGVPSRFSGSGSGTEFTLTISSLQPGDVATYYCQQYNIYSWTFGQGTKVEIK
On to B4, for which the entries for the “mRNA display binding score” value in experiment [1] and in experiment [2] were inactive: 0.458 and inactive: -0.131, respectively.

B5: C1-2-2F03 (protein)
chain 1: VQLQESGPGLVKPSETLSLTCSVFGDSISSHYWSWIRQPPGKGLEWIGYIYYSSRTDYNPSLKSRVTISVDTSKNQVSLSLRSVTAADTAVYYCARTMDTSGWQPYYYGMDVWGQGTTVTVSS
chain 2: EIVLTQSPGTLSLSPGERATLSCRASHTVSSNNLAWYQQKPGQAPRLLIYGSSSRAYGIPDRFSGYGAGTDFTLTISRLEPEDFAVYYCQQYGSSPMYTFGQGTKVEIK
As for B5, the “mRNA display binding score” value in experiment [1] was inactive: 0.927; in experiment [2], inactive: 0.744.

B6: R95-1B07 (protein)
chain 1: QVQLQGSGPGLVKPSGTLSLTCGVSCASISSNHVSSGVPQPPGKGGEAIGELVHNGRTIYNPSLRSRLNISLDRSKILFSLKLTSVTAADTAVYYCAFFQRGYTSGSDYWGQGTLVTVSS
chain 2: QAVVTQEPSFSVSPGGTVTLTCGLSSGSVSTNNYPSWYQQTPGQAPRTLIYSTNTRSSGVPDRFSGSILGTRAALTVTGAQAEDESDYYCMLYLGSGSWVFGGGTKLTVL
Consider B6, for which the entries for the “mRNA display binding score” value in experiment [1] and in experiment [2] were inactive: -0.543 and inactive: 0.548, respectively.

B7: C1-2A02 (protein)
chain 1: VQLVESGGGLVQPGGSLRLSCVASGFDFNQYSMNWVRQAPGKGLEWLSYISSSAATVFYADSVQGRLTISRDNGKNSLFLQMNSLRVEDTAVYYCVREAVIVDGMPFEYWGQGALVTVSS
chain 2: EIVMTQSPGTLSVSPGESATLSCRASESVGSSLAWYQQKPGQAPRLLIFHTSTRATGVPARFSGSGSGTEFTLTISGMQSEDSGVYHCHQYKGWPPWTFGQGTKVEIK
For B7, the “mRNA display binding score” value was inactive: 0.787 in experiment [1] and inactive: 0.125 in experiment [2].

B8: R95-2C07 (protein)
chain 1: EVQLVESGGGLVQPGGSLRLSCEVSGFSFSSYWMSWVRQAPGKGLEWVANIKQDGSEKNYVDSVKGRLTISRDNAKNSLYLQMDSLRAEDTAVYYCARDGPHDFWSGYPFDYWGQGTLVTVSS
chain 2: DIQMTQSPSSLSASVGDRVTITCRASQGIRDDLGWYQQKPGKAPKRLIYAASSLQSGVPSRFSGSGSGTEFTLTISSLQPEDFATYYCLQHNSYPRTFGQGTKVEIK
With B8, the results for the “mRNA display binding score” value in experiment [1] and in experiment [2] were inactive: 0.657 and inactive: 1.44, respectively.

B9: K77-1D09 (protein)
chain 1: QVQLQESGPGLVKPSETLSLTCTVSDGSVSSSSYFWGWIRQPPGKGLEWIGSIYYTGDTDYNPSLKGRVTISVDSSKNQFSLRLSSLTAADTAVYYCAREGPAWVRYSFDYWGQGSLVTVSS
chain 2: QSALTQPASVSGSPGQSITISCTGTSSDVDDYNYVSWYQQDPGKAPKLIIYHVNKRPSGVSHRFSGSKSGNTASLTISGLQAEDEADYYCSSYTSSNTPVVFGGGTKLTVL
Consider B9, for which the “mRNA display binding score” value in experiment [1] is inactive: -0.55; in experiment [2], inactive: -0.454.

B10: K77-1B07 (protein)
chain 1: QVQLVQSGAEVKKPGASVKVSCKASDYSLTNYYLHWVRQPPGQGLEWMGIIHPNGITTTYAQKFLGRVTMTRDTSTSTVYMELTSLRSDDTAVYYCARRGVVITSEGYHYYGLDVWGQGTTVTVSS
chain 2: EIVLTQSPGTLSLSPGERATLPCRASQSVSSSYLAWYQQKPGQAPRLLIYGASSRATGIPDRFSGSGSGTDFTLSISRLEPEDFAVYYCHHYGSTGTFGGGTKVEIK
As to B10, the results for the “mRNA display binding score” value in experiment [1] and in experiment [2] were inactive: -0.863 and inactive: 0.845, respectively.

B11: 240-14-IgG-1A06 (protein)
chain 1: QVTLKESGPVLVKPTETLTLTCTVSGFSLSNIIMGVSWIRQPPGRALEWLAHITSKDEKSYSTSLKKRLTISKDTSKSQVVLIMANMDPADTATYYCTRIRWDCGGDCYWTHDFWGQGTLVTVSS
chain 2: SYELTQPPSVSVSPGQTARITCSGGRLGDTFASWYQQRPGQAPVLVIYRDTMRPSGIPERFSGSNSGHAATLTISGTQTMDEADYYCQVWDTSASAHVFGTGTTVTVL
B11: the “mRNA display binding score” value in experiment [1] is inactive: -0.883; in experiment [2] it was inactive: 0.0836.

B12: antibody 3G01 (protein)
chain 1: VQLQESGPGLVRPSKTLSLTCTVSGDSIDSSTDYWAWIRQPPGKGLEWIGNIYYSGTTYYNPSLQSRVTISVDTSKNQFSLTLRSVTAADTALFYCARQEIVGIRVWGQGTLVTVSS
chain 2: DIVMTQSPDSLAVSLGERATISCKSSQSVLYSANNKNYLAWYQQRPGQPPKLLIYWSSTRESGVPDRFSGSGSGTDFSLTISSLQAEDVAVYYCQQYYDTPYTFGQGTKVEIK
For B12, the figures for the “mRNA display binding score” value in experiment [1] and in experiment [2] were inactive: -0.384 and inactive: -0.472, respectively.

B13: K77-1B01 (protein)
chain 1: EVQLVESGGVVVQPGGSLNLSCAASGFTFDDYAMHWVRQTPGKGLEWVSLISWDGGHTYYADSVKGRFTISRDNSKNFLYLEGHSLRPEDTALYYCVRDPGAGNYYYYGMDVWGHGTTVTVSS
chain 2: B12 chain 2 with S22N, S32R, A33S, N35K, R45K, S57A, S78T, D99T, Y102H, V110L
As to B13, the entries for the “mRNA display binding score” value in experiment [1] and in experiment [2] were inactive: 0.269 and inactive: -0.372, respectively.

B14: antibody 2G04 (protein)
chain 1: EVQLLESGGGVVQPGRSLRLSCAASGFIFSYSGIHWVRQAPGKGLEWVALISYDGRNQYYADSVKGRFTISRDNTKTTLQMNNLRAEDTAVYFCARDRHDFGDNYEIDYWGLGTTVTVSS
chain 2: FMLTQPHSVSESPGKTVTISCTRSSGNIASYFVQWYQQRPGSAPTTVIFEDDQRPSGVPDRFSGSIDSSSNSASLTISGLRTEDEADYYCQSYDTINPHVIFGGGTKLTVL
Turning to B14, the “mRNA display binding score” value in experiment [1] is inactive: 3.47; in experiment [2], inactive: 2.05.

B15: antibody 2C03 (protein)
chain 1: VQLVESGGGVVQPGRSLRLSCAASGFTFSTYAMHWVRQAPGKGLEWVAIISYDGTYKYYADSVKGRFTISRDNLKNTLYLQMDSLRAEDTAVYYCGGECDGDCGGIDYWGQGALVTVSS
chain 2: DIVMTQSPDSLAVSLGERATINCRSSHSLLYSSNNKNYLAWYQQKPGQPPKLLIYWASTRHSGVPDRFSGSGSGTDFTLTISSLQAEDVALYYCQQYYDTPFTFGPGTKVEIK
Regarding B15, the “mRNA display binding score” value in experiment [1] was inactive: -0.175; in experiment [2] it was inactive: -0.412.

B16: 014-10-1D01 (protein)
chain 1: QVQLQESGPGLVKPSQTLSLICTVSGGSVSSGNHYWSWIRQPAGRGLEWIGRIFSDGSTYYHPSLKSRVTMSLDTSKNQVSLKLSSVTAADTAMYYCARDYSGYDYLAFDIWGQGSMVTVSS
chain 2: QSVLTQPPSASGTPGQRVTISCSGDNFNIGRNTVNWYQQLPGTAPKLLIYTTNQRPSGVPDRFSGSQSGTSASLAISGLQSEDEADYYCAAWDDSLSGLWVFGGGTKLTVL
For B16, the “mRNA display binding score” value in experiment [1] is inactive: -0.245; in experiment [2], inactive: -0.437.

B17: R95-1F03 (protein)
chain 1: QVQLQESGPGLVKASGTLSLTCVVSGGSIRSENWWSWVRQPPGKGLEWIGEVYHSGNANYNPSLKSRVSISVDESKTQFSLRLTSVTAADTAVYYCVKDGARDSSGYYNYRWGWYDPWGQGILVVVSS
chain 2: DIQMTQSPSSLSASVGDRVTITCRASQSIGGYLNWYQQKPGKAPKLLIYAASTLQSGVPARFSGSGSGTDFTLTISSLQPEDFATYYCQQSYNLVSITFGQGTRLDIK
For the molecule B17, the results for the “mRNA display binding score” value in experiment [1] and in experiment [2] were inactive: -1.12 and inactive: -0.281, respectively.

B18: W85-1F04 (protein)
chain 1: QVQLVQSGAEVKKPGASVKVSCKASGYTFTTYDINWVRQATGQGLEWMGWMNPNSGNTGSAQNFQGRVTMTRNTSINTAYMELSSLRSDDTAVYYCVRGLGYCTSTSCYGSWFDPWGQGTLVTVSS
chain 2: EIVMTQSPATLSVSPGERATLSCRASQNISSNLAWYQQKAGQVPRLLIYGASTRATGCPARFSGSGSGTEFTLTISSLQSEDFAVYYCQQYDNWTPITFGQGTRLEIK
B18: the “mRNA display binding score” value in experiment [1] is inactive: 0.439; in experiment [2], inactive: -0.19.

B19: 051-10-2B05 (protein)
chain 1: EVQLVESGGGLVKPGGSLRVSCAASGFIFGTFGMNWVRQAPGKGLEWVSSISSASASIEYADAVKGRFTISRDNAEKSLYLQMNSLRADDTAVYYCARDGGVPRRYSLDVWGQGTTVTVSS
chain 2: QSALTQPASVSGSPGQSITISCTGTSSDVGAYNLVSWYQQHPGKAPKLMIFDVTNRPSGVSNRFSGSKSGDTASLTISGLQAEDEADYFCSSYTNTRTLLFGGGTKLTVL
For B19, the “mRNA display binding score” value in experiment [1] was inactive: -0.0201; in experiment [2] it was active: 58.5.

These data come from the supplement of paper PMC11383711.
